Results: PubChem BioAssay AID743279 (National Center for Advancing Translational Sciences (NCATS), 2014)
Hit rate of the full screen: of about 360,000 compounds, about 17,000 (4.7%) were called active. Inconclusive results, whose numbers are uncertain, are shown with a selection of clear calls. Cut-off read from the data, not from the text of the source: active = activity change below about -50%; inconclusive = mostly about -30% to -49%; inactive = weaker than that.

Test: qHTS for Inhibitors of Inflammasome Signaling: IL-1-beta AlphaLISA Primary Screen
Details: THP-1 LPS/ATP IL-1B secretion, 16 h; at 57.5 µM, stronger effect = lower value
In short: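 THP-1 cells pretreated 1 hr with compounds (up to 57.5 uM final), then stimulated with LPS (250 ng/mL final) plus ATP (1.25 mM final); secreted IL-1B measured by AlphaLISA after 16 hr, decreased signal indicating inhibition.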
% is set by controls: 0 for no effect and ±100 for the full control effect.

Activity change, inconclusive:
CC(=NNC(=S)Nc1ccccc1)c1ccccn1 -40.1%
NCCC(=O)N1c2ccccc2Sc2ccc(Cl)cc21 -39.9%
CCOP(=O)(OCC)/C(C#N)=C/c1ccc(-c2ccc(F)cc2F)o1 -41.9%
N#C/C(=C\c1ccccc1OCc1ccc(C(=O)O)cc1)C(=O)Nc1ccc(O)cc1 -30.1%
O=C1C=C(NCc2ccc(Cl)cc2Cl)C2(CCCCC2)O1 -42.8%
CC(C)(C)NNC(=S)Nc1cccc(C(F)(F)F)c1 -44.5%
CN1CCN(c2ccc(CNC(=O)C3Cc4c(-c5ccc(Cl)cc5)ccnc4O3)cc2)CC1 (stereo not drawn) -33.2%
CCOc1ccc(-n2ccnc2SCC(=O)N2CCCc3ccccc32)cc1 -30.5%
O=C(/C=C\c1cn(-c2ccccc2)nc1-c1cccs1)N1CCOCC1 -33.9%
O=C(Nc1cccc(-c2nc3ccccc3s2)c1)c1cc(-n2cnnc2)ccc1Cl -30.9%
Cc1cc(C(=O)C(C)Cl)c(C)n1Cc1ccco1 (stereo not drawn) -48.4%
Cc1cccn2c(=O)c(C=Nc3ccccc3)c(NCc3ccco3)nc12 -40.9%
O=C(NCc1ccco1)c1ccccc1Nc1ccc(F)cc1 -30.9%
O=c1c2ccccc2nc(-c2ccc(Cl)cc2Cl)n1CCCn1ccnc1 -41.1%
CC[C@]12c3[nH]c4cc(-c5ccco5)ccc4c3CCN1C(=O)[C@@H](CC(=O)NC/C=C(\C)CCC=C(C)C)C[C@@H]2C(=O)N1CCN(C(=O)c2ccco2)CC1 -43.9%
COc1ccc(NC(=O)CCC(=O)N/N=C/c2ccc([N+](=O)[O-])s2)cc1 -40.7%
O=C(NC(=S)Nc1ccc(CN2CCOCC2)cc1)c1ccc2c(c1)OCCO2 -44.3%
O=C(CC12CC3CC(CC(C3)C1)C2)N/N=C/c1ccc([N+](=O)[O-])o1 -47.2%
Nc1nc(N)c(N=O)c(OCC2CCCCC2)n1 -31%
O=C(CN1C(=O)NC2(CCc3ccccc32)C1=O)NCc1ccccc1Cl (stereo not drawn) -30.3%

Activity change, inactive:
N#Cc1c(-c2ccccc2Cl)noc1/C=C/Nc1ccc(C(=O)O)cc1 -25.8%
CCN(CC)S(=O)(=O)c1ccc(OC)c(NC(=O)c2cccs2)c1 -8.76%
CCc1nc2ccccc2c(C(=O)OCC(=O)Nc2ccc(S(=O)(=O)N3CCOCC3)cc2)c1C -1.1%
O=C(NC1CCS(=O)(=O)C1)c1ccc(Br)s1 (stereo not drawn) 9.85%
COc1ccc(C(=O)c2ccc(N(C)C)cc2)c(OC)c1 -8.72%
COc1ccc(N(CC(=O)Nc2cc(C)ccc2C)S(=O)(=O)c2ccccc2[N+](=O)[O-])c(OC)c1 0%
COc1ccc(CN2CCN(C3CCOCC3)CC2CCO)c(C)c1C (stereo not drawn) 6.91%
CCn1cc(C(=O)N[C@@H](C)C(=O)NCCCn2ccnc2)c(=O)c2cc3c(cc21)OCO3 -1.86%
O=C(NNC(=O)c1ccc(F)cc1)c1ccncc1 7.33%
O=C(CC1NC(=O)NC1=O)Nc1ccccc1 (stereo not drawn) 0%
O=C(COc1ccc(Cl)cc1Cl)N/N=C/C1CC=CCC1 (stereo not drawn) -13.8%
O=C(NCc1nc2ccccc2[nH]1)C1=C[C@@H](c2ccc(Br)cc2)C[C@@H](OCc2ccc(CO)cc2)O1 0%
O=C1NC(=Nc2ccccc2)S/C1=C\c1cccnc1 -11.3%
Cc1ccc(OCC(=O)n2nc(C)cc2C)c(C)c1 3.6%
O=C(Cc1csc2ccccc12)NCC1CC1 -1.37%

Activity change, active:
CC(=O)N1CCN(c2ccc(Nc3ncnc4c3oc3ccccc34)cc2)CC1 -81.1%
O=C(Nc1ccccc1)Nc1ccccc1C(=O)NCc1ccco1 -56.9%
CN(C)CCN(C(=O)c1ccccc1Cl)c1nc2c(Cl)cccc2s1 -68.7%
Cc1cc(OC(C)C(=O)NCC(O)c2ccccc2)c2c(C)c(C)c(=O)oc2c1 (stereo not drawn) -51.6%
COc1cc(C(=O)Nc2cccc(-c3nnc(-c4ccco4)o3)c2)ccc1OC(C)=O -87.9%
CC1CCN(S(=O)(=O)c2ccc(NC(=O)CNC3CCCCC3)cc2)CC1 -87.4%
CCCS(=O)(=O)Nc1ccc(Nc2c3ccccc3nc3ccccc23)c(OC)c1 -93.8%
Cn1c(=NC(=O)CCl)sc2ccccc21 -120%
